Data as given in publication PMC9663165.
No constants are given. Whether binding was seen depends on the method and setting. Some binding calls cover weakened binding; strength is not graded here.

Chains of the proteins cited; added tags and fusions are not shown. Lines headed by an entry give the natural chain unless they say otherwise; changes in a name come on top. A line that says so, or that is headed by a name, gives the form on record, which may keep a tag or linker. Residues count along the entry.
full-length human p75 neurotrophin receptor fused at the cytoplasmic C-terminus to GFP (P08138, residues 29-427): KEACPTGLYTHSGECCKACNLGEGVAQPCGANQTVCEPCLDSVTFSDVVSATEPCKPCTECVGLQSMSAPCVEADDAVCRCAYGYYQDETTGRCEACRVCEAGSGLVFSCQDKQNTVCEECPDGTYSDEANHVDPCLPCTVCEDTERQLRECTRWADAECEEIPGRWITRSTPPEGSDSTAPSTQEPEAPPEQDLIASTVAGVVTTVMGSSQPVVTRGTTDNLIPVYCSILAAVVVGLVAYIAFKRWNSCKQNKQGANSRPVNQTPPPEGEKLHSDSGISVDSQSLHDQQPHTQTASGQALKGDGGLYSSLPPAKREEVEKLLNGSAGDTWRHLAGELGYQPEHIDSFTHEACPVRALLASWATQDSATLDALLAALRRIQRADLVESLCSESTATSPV
p75^NTR F136K (P08138, form named): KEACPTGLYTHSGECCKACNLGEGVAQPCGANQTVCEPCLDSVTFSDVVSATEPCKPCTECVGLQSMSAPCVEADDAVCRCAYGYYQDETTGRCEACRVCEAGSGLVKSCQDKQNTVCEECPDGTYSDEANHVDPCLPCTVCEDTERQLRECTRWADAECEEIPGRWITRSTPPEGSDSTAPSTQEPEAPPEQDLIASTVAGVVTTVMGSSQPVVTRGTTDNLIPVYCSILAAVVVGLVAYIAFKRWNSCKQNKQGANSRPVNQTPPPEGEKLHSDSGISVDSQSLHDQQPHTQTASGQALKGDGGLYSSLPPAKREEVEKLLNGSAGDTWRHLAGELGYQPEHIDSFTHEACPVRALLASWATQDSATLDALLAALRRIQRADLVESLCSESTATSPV
p75^NTR F136H (P08138, form named): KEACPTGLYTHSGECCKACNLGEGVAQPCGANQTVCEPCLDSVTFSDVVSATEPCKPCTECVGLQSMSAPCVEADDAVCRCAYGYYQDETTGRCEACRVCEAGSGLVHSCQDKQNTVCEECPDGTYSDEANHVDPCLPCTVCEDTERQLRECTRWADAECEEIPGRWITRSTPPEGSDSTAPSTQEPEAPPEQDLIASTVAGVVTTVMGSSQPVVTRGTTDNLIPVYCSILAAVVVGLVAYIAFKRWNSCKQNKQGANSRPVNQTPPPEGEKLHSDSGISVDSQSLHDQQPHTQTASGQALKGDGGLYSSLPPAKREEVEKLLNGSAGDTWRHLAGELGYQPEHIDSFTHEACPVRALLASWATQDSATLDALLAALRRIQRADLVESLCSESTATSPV
UniProt P07174, residues 30-425: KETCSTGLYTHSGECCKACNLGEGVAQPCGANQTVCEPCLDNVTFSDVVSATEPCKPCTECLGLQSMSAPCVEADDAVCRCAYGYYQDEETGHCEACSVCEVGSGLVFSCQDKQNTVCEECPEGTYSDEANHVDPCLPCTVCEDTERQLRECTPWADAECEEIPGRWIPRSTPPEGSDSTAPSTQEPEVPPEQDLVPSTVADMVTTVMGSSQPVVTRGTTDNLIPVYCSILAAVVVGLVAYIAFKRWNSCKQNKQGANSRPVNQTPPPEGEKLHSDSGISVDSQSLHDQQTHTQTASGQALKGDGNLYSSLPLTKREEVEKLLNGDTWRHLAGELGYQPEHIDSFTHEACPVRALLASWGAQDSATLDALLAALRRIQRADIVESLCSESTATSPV
UniProt Q9Z0W1, residues 32-427: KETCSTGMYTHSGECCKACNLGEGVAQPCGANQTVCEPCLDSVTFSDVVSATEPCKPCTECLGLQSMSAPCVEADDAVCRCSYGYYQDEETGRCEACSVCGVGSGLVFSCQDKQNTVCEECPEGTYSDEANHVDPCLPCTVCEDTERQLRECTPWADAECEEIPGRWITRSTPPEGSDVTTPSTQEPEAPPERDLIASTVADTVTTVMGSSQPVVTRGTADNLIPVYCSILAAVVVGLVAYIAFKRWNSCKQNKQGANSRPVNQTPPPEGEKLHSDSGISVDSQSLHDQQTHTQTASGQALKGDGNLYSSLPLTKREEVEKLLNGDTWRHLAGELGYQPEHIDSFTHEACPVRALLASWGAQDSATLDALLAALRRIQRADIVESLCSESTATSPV
UniProt P25445: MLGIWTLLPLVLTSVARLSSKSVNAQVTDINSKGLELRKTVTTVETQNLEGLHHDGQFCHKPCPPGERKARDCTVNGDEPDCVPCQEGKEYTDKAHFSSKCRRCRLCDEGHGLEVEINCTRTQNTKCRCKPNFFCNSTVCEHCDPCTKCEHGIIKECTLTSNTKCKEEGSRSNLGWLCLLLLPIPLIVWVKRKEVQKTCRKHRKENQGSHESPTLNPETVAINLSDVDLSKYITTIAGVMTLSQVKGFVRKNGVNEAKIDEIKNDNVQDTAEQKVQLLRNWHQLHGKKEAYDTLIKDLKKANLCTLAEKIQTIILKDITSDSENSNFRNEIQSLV
UniProt Q96PQ0, residues 51-1159: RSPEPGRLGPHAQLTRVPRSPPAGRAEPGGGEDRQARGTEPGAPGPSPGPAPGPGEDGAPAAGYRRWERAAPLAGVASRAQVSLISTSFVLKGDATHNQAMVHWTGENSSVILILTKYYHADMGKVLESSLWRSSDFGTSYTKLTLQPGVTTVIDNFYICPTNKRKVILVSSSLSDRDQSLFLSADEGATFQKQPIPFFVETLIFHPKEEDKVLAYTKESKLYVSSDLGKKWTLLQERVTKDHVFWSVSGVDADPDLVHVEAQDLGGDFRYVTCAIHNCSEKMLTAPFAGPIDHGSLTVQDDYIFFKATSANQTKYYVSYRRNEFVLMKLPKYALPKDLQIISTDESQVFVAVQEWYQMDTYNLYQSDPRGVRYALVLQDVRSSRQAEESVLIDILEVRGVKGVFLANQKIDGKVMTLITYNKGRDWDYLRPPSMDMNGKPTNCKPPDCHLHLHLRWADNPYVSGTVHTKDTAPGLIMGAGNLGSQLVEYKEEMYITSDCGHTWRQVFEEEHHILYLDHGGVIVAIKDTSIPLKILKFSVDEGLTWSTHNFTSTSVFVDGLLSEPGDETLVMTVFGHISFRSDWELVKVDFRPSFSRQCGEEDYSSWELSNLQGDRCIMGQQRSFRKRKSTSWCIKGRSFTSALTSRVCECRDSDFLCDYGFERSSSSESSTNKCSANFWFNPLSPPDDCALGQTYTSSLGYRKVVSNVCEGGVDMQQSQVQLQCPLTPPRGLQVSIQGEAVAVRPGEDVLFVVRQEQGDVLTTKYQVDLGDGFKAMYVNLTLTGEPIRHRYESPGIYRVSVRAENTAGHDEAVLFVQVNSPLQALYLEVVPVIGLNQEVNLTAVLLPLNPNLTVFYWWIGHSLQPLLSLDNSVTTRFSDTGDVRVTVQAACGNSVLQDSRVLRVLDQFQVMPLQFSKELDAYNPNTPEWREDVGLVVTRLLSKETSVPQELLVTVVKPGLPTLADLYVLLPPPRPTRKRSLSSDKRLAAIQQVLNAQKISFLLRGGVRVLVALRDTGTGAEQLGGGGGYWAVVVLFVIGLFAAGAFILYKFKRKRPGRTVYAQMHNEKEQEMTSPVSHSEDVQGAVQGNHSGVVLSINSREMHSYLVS
UniProt P20333, residues 23-461: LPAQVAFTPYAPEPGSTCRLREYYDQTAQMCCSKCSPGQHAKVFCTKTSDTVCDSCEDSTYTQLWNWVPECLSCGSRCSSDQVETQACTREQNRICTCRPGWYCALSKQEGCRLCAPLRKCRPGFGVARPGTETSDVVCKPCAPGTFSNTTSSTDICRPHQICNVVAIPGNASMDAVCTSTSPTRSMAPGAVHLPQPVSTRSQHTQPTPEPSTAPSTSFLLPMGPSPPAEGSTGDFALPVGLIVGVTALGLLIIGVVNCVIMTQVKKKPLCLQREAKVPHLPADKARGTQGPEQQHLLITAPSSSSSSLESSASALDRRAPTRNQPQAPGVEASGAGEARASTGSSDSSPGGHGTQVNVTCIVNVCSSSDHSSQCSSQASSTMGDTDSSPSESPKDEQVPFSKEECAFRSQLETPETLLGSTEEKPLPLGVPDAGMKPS
UniProt Q92956: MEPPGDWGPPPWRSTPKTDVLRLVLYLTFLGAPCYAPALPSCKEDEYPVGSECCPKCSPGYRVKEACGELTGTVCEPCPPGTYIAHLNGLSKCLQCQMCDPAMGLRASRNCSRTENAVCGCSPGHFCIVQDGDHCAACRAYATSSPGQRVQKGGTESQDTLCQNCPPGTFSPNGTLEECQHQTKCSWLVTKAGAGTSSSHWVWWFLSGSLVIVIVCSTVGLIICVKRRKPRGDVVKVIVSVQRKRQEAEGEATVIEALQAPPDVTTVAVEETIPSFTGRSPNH

Key:
p75^NTR F136K (human) = p75^NTR F136K (human) (UniProt P08138); test: flow cytometry on cells; cell-cell conjugates, salt bridge suppressor screen: cells expressing p75NTR lysine or histidine mutants against cells expressing B7-1 D/E mutants or WT B7-1
p75^NTR F136H (human) = p75^NTR F136H (human) (UniProt P08138); test: as above
rat p75^NTR-GFP (rat) = rat p75^NTR-GFP (rat) (UniProt P07174); test: flow cytometry on cells; cell-cell conjugates: cells expressing B7-1–mCherry of various mammalian species against cells expressing human, mouse or rat p75NTR-GFP
[1] = molecular target: mouse p75^NTR-GFP (mouse) (UniProt Q9Z0W1); test: as above
[2] = molecular target: full-length human p75 neurotrophin receptor fused at the cytoplasmic C-terminus to GFP (human) (UniProt P08138); test: as above
[3] = molecular target: full-length human p75 neurotrophin receptor fused at the cytoplasmic C-terminus to GFP (human) (UniProt P08138); test: flow cytometry on cells; heterologous cell-based assay of hB7-1 binding to p75NTR with abatacept; details only in Supplemental Figure 9
SorCS3 = molecular target: T1, SorCS3 (UniProt Q9UPU3); test: flow cytometry on cells; cell-cell conjugates: cells expressing the mCherry-tagged query mixed with cells individually expressing GFP-tagged members of the human Ig and TNFR superfamily library; double-positive events; PBS 0.2% BSA, pH 7.4
T1 sequence: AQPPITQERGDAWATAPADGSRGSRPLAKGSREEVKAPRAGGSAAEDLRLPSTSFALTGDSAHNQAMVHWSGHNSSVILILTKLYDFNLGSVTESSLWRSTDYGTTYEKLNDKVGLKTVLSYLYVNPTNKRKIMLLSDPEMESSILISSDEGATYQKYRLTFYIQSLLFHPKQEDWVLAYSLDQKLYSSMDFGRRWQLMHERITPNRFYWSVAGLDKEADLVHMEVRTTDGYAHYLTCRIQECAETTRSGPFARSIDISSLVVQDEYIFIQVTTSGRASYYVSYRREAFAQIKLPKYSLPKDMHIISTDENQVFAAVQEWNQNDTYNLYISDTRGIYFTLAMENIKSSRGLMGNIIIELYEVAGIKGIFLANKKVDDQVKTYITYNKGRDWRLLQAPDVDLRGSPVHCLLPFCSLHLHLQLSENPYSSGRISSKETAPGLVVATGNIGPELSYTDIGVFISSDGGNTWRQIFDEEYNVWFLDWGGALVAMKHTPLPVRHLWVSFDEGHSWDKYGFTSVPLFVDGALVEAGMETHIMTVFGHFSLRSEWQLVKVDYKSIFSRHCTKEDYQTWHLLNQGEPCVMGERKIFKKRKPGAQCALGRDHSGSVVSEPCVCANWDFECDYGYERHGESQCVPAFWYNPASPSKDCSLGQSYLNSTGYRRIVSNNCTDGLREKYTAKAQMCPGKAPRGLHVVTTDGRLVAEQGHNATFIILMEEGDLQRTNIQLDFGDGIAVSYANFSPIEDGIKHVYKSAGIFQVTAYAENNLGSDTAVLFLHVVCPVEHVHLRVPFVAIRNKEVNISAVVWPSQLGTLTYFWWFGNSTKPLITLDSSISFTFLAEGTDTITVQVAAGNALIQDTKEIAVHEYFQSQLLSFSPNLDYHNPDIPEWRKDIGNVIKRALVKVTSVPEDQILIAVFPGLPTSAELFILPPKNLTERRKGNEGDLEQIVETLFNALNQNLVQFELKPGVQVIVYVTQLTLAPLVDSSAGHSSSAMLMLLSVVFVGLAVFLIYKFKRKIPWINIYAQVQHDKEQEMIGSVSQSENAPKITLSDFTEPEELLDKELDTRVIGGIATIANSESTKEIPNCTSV

[4] = molecular target: FAS, GFP-tagged library member (human) (UniProt P25445); test: as above
SorCS2 = SorCS2 (UniProt Q96PQ0); test: as above
sortilin = sortilin (UniProt Q99523); test: as above
SorCS1 = molecular target: T2, SorCS1 (UniProt Q8WY21); test: as above
T2 sequence: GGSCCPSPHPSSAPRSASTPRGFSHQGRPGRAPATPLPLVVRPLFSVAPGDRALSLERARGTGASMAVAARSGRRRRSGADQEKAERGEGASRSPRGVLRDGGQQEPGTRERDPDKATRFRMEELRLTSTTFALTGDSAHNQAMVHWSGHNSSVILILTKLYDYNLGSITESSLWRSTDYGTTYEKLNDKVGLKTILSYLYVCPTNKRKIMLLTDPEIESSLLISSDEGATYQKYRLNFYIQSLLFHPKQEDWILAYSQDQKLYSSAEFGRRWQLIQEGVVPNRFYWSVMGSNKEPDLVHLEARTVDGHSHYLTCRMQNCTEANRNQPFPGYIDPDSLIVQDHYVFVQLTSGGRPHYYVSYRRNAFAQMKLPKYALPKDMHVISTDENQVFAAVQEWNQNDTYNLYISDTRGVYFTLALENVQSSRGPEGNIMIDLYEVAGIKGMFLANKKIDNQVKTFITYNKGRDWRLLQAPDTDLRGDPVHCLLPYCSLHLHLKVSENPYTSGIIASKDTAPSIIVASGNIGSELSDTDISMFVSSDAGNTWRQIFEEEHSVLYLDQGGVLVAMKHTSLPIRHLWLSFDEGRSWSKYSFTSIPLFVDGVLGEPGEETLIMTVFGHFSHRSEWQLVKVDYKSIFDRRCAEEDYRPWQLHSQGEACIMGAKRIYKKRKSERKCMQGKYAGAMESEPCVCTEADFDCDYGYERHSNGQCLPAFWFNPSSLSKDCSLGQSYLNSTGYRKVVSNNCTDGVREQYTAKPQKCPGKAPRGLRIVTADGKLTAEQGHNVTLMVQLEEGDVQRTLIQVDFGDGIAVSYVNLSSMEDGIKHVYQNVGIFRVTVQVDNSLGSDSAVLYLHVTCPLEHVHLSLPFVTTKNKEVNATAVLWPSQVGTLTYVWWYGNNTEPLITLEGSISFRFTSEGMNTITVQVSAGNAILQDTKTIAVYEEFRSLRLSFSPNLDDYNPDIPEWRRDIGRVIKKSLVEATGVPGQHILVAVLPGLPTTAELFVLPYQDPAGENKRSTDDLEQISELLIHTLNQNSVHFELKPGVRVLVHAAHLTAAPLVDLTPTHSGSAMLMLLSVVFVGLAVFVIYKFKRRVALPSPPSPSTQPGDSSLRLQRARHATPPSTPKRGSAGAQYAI

[5] = molecular target: TNFR2, GFP-tagged library member (human) (UniProt P20333); test: as above
[6] = molecular target: HVEM, GFP-tagged library member (human) (UniProt Q92956); test: as above
[7] = molecular target: full-length human p75 neurotrophin receptor fused at the cytoplasmic C-terminus to GFP (human) (UniProt P08138); test: as above

binding (p75^NTR F136K (human)): binds
binding (p75^NTR F136H (human)): binds
binding (rat p75^NTR-GFP (rat)): binds
binding [1]: binds
binding [2]: binds
binding [3]: binds
binding (SorCS3): no binding
binding [4]: no binding
binding (SorCS2): no binding
binding (sortilin): no binding
binding (SorCS1): no binding
binding [5]: no binding
binding [6]: no binding
binding [7]: binds
Substance: human B7-1–mCherry fusion protein (from UniProt P33681 35-288) (ligand)
